Data published in patent publication US20220348665A1 (ABL BIO, published 2022).

Columns and labels:
[1] = target: T1, human IGF1R extracellular domain, recombinant, His tag at C-terminus (human, UniProt P08069 31-932); test: ELISA on human IGF1R protein, against VH5 WT
T1 construct: also called human IGF1R ECD; ECD of IGF1R

[2] = target: T2, human IGF1R, endogenous, on the surface of breast cancer cell lines (MCF-7, JIMT-1, BT474) (human, UniProt P08069 31-1367); test: FACS on MCF-7 cells (2ndary Ab only MFI 2.29)
T2 construct: also called endogenous IGF1R on the cell surface; MCF-7 cell line

[3] = target: T1, human IGF1R extracellular domain, …; test: ELISA, human IGF1R ECD (Sino Biological) coated, anti-human Fc-HRP
[4] = target: T1, human IGF1R extracellular domain, …; test: ELISA on human IGF1R protein
[5] = target: T1, human IGF1R extracellular domain, …; test: ELISA, human IGF1R ECD coated, against VH5 wild type
[6] = target: T1, human IGF1R extracellular domain, …; test: ELISA on human IGF1R protein, against VH16 WT
[7] = target: T1, human IGF1R extracellular domain, …; test: ELISA, human IGF1R ECD coated, against VH16 wild type

% WT [1] [%] | MFI [2] | EC50 [3] [pM] | EC50 [4] [pM] | % WT [5] [%] | % WT [6] [%] | % WT [7] [%] | Binder
223 | 8.03 | 56.1 | 56.1 | 223 |  |  | hu11F11(ver.2)-VH5(de2)(StoP) bivalent (bispecific antibody) (bispecific antibody, human IgG1, kappa, also called hu11f11-VH5(de2)(StoP); VH5 bi (de2)(StoP)) heavy: EVQLVESGGGLVQPGGSLRLSCATSGFTFSDFYMEWVRQPPGKRLEWIAASRNKANDYTTEYSASVKGRFTVSRDDSKSSLYLQMNSLRAEDTAIYYCARDAHGKPFAYWGQGTTVTVSS[human IgG1 constant region cut from this listing]GGGGSGGGGSGGGGSQSVLTQPPSASGTPGQRVTISCTGSSSNIGSNDVSWYQQLPGTAPKLLIYANVNRPSGVPDRFSGSKSGTSASLAISGLRSEDEADYYCGAWDDSLNAYVFGCGTKLTVLGGGGSGGGGSGGGGSGGGGSEVQLLESGGGLVQPGGSLRLSCAASGFTFSSYDMSWVRQAPGKCLEWVSAISGDNASTYYADSVKGRFTISRDNSKNTLYLQMNSLRAEDTAVYYCAKGVLTTLMNWFDSWGQGTLVTVSS light: DIVMTQSPSSLAVSLGERVTMS[about 80 residues cut from this listing][about 120 residues cut from this listing]
 | 6.42 | 122 | 122 |  | 117 | 117 | hu11F11(ver.2)-VH16(de2)(StoP) bivalent (bispecific antibody) (bispecific antibody, human IgG1, kappa, also called hu11F11-VH16(de2)(StoP); VH16 bi (de2)(StoP)) heavy: EVQLVESGGGLVQPGGSLRLSCATSGFTFSDFYMEWVRQPPGKRLEWIAASRNKANDYTTEYSASVKGRFTVSRDDSKSSLYLQMNSLRAEDTAIYYCARDAHGKPFAYWGQGTTVTVSS[human IgG1 constant region cut from this listing]GGGGSGGGGSGGGGSQSVLTQPPSASGTPGQRVTISCTGSSSNIGSNDVSWYQQLPGTAPKLLIYANVNRPSGVPDRFSGSKSGTSASLAISGLRSEDEADYYCGAWDDSLNAYVFGCGTKLTVLGGGGSGGGGSGGGGSGGGGSEVQLLESGGGLVQPGGSLRLSCAASGFTFSSYDMSWVRQAPGKCLEWVSAISGSNANTYYADSVKGRFTISRDNSKNTLYLQMNSLRAEDTAVYYCAKGVLTTLMNWFDYWGQGTLVTVSS light: DIVMTQSPSSLAVSLGERVTMS[about 80 residues cut from this listing][about 120 residues cut from this listing]
